Certain results were filed several times, with different values. They are shown here; other results are not. An entry can have further records. The values listed for one entry seem to repeat one measurement on other runs, samples or individuals. What stands in brackets tells the records apart. A, B and so on number the origins entry by entry.
Molecular target: PaEF4
Type: binding, P. anaerobius
Conditions: BLI, PaEF4 58 μM
Procedure: A streptavidin matrix-coated sensor chip (SA chip) was firstly equilibrated with buffer A (lysis buffer with 0.05% Tween 20) followed with the immobilization BBP (200 μM) on the SA chip. Next, proteins with increasing concentrations (0.23, 0.91, 3.63, 14.50, and 58.00 μM) were passed on to the chip for the measurement of changes in response unit (nm). The program comprises the stabilization of the baseline with the buffer A for 1 min, 6 min incubation of the BBP with the SA chip for immobilization, stabilizing the baseline again for 3 min, association enabling interaction between proteins and compounds for 4 min, and dissociation for 4 min followed by a regeneration step. […] Raw data were pre-processed, analyzed, and fitted using the 1:1 binding model in the manufacturer’s software (9.0, Pall ForteBio Corp, Menlo Park, CA, USA) to generate kinetic parameters.

COc1ccc2cc3[n+](cc2c1OC)CCc1cc2c(cc1-3)OCO2 [BBR, Berberine]
binding affinity of BBR with PaEF4: non-detectable binding affinity [passage A] and doesn’t bind [passage B]

Source: PMC10696740 (BMC Biology, 2023)
